Results taken from article PMC4336329 (PLoS ONE, 2015).
Among all 310,000 compounds or so, about 14,000 (4.5%) showed an effect of 50% or more. The effect is printed as a negative number. The list shows a part of the results.

What follows are molecules tested against human ether-à-go-go-related gene (hERG) potassium channel (human, UniProt Q12809) (assay: primary screen, population patch clamp on CHO cells stably expressing hERG).
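Further: peak tail current of the secondary pulse compared with the same well before compound.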

Chain of human ether-à-go-go-related gene (hERG) potassium channel (Q12809 whole entry, looked up): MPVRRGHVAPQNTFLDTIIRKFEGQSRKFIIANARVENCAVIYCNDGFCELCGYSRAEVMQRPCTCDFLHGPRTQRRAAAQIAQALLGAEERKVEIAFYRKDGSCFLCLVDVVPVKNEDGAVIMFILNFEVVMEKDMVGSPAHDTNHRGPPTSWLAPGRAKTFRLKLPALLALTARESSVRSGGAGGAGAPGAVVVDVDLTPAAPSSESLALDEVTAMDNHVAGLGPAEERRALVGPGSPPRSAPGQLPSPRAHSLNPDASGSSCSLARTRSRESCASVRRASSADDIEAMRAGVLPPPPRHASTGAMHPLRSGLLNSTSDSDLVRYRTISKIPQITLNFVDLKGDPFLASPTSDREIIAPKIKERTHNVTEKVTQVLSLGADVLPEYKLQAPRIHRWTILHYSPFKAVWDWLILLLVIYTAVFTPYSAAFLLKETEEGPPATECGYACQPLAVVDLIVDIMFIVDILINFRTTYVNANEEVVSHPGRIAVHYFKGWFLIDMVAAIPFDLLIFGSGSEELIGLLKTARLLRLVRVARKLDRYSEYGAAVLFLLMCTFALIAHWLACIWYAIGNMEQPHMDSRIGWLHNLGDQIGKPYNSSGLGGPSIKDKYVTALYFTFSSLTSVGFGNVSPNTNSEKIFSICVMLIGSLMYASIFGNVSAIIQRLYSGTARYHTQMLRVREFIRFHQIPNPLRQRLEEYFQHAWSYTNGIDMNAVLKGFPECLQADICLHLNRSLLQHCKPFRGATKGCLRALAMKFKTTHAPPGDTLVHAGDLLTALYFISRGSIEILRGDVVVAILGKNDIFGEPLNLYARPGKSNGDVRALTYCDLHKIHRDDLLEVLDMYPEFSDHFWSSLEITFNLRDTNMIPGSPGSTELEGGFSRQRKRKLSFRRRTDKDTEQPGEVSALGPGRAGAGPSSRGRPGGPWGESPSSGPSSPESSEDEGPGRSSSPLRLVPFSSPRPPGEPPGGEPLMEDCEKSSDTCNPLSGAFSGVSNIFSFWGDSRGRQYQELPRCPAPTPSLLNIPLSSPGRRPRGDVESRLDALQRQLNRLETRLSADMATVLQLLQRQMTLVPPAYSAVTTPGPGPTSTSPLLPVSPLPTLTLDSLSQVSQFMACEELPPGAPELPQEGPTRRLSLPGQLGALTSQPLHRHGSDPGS

| SMILES | hERG current change (%, negative = inhibition) at 10uM |
| --- | --- |
| CCN1CCCC1CNC(=O)CS(=O)(=O)Cc1nc(-c2ccccc2C)oc1C (stereo not shown) | -8.88% |
| Cc1ccccc1NC(=O)COC(=O)CNC(=O)c1sc2ccccc2c1Cl | 13.8% |
| Cn1cc(CN2CCC(C(=O)N3CCCCC3)CC2)c(-c2ccccc2F)n1 | 4.1% |
| COc1ccc2c(c1)c(=O)oc1cc3occ(C(C)(C)C)c3cc12 | -0.705% |
| Cc1ccc(NC(=S)N2CCN(C(=O)C3CCCO3)CC2)cc1 (stereo not shown) | 17.8% |
| CC(=O)OCc1c(COC(C)=O)[n+](=O)c2ccccc2n1[O-] | -17.9% |
| O=C(Oc1cccnc1)c1ccccc1[N+](=O)[O-] | -5.23% |
| COC(=O)/C=C/S(=O)(=O)c1ccc(NC(C)=O)cc1 | -3.85% |
| CCOc1cc(S(=O)(=O)n2cnc(C)c2)ccc1Cl | -8.24% |
| c1ccc(CN=C2Nc3ccccc3CS2)nc1 | 18.6% |
| COc1cc(O)oc1C=Nc1ccc(Oc2ccccc2)cc1 | 9.26% |
| CC(OC(=O)Cc1c[nH]c2ccccc12)C(=O)Nc1ccccc1F (stereo not shown) | -11.7% |
| COc1ccc(CC(=O)OCC(=O)Nc2cc(S(=O)(=O)N3CCOCC3)ccc2N2CCCC2)cc1 | -20.9% |
| CC(=O)c1c(-c2ccccc2)c2ccccc2[nH]c1=O | 30.3% |
| O=C(NCc1cccc(Br)c1)C1CC(c2ccccc2C(F)(F)F)=NO1 (stereo not shown) | -17.7% |
| Cn1c(N)c(C(=O)COC(=O)c2ccccn2)c(=O)n(C)c1=O | 8.25% |
| COc1ccc(CCN(C)C(=O)c2ccc(COc3ccccc3)o2)cc1OC | -3.91% |
| CCc1cccc2c(C(=O)CSc3nnc(-c4ccncc4)n3C)c[nH]c12 | 1.11% |
| COc1ccc(C)cc1-n1c(SCC(=O)Nc2cc(C)on2)nc2sc(C)c(C)c2c1=O | -2.19% |
| CC(C)C(=O)N1CCN(c2ccc(NC(=O)c3ccc([N+](=O)[O-])o3)cc2)CC1 | -12.9% |
| O=C1CCC(c2ccccc2)=NN1Cc1c(F)cccc1Cl | 1.33% |
| Cc1cccc(NC(=O)C(=O)N/N=C/c2ccncc2)c1 | -12.3% |
| CSc1ccccc1NC(=O)N1CCCC(C(=O)c2ccc3c(c2)OCO3)C1 (stereo not shown) | -39.8% |

| SMILES | hERG current change (%, negative = inhibition) at 10uM |
| --- | --- |
| O=C(Oc1ccc(-c2nnco2)cc1)N(c1ccccc1)c1ccccc1 | -28.9% |
| CCN(CC)CCN1C(=O)C(O)=C(C(=O)c2ccco2)C1c1ccccn1 (stereo not shown) | 5.88% |
| CCOc1ccc(OCCOC(=O)CNC(=O)c2ccc(Cl)cc2Cl)cc1 | 12.2% |
| CCCn1c(SCC(=O)NCc2ccco2)nc2c1c(=O)n(C)c(=O)n2C | -18.6% |
| COc1ccc(N(C)S(=O)(=O)c2cccc(C(=O)Nc3nnc(C4CC4)s3)c2)cc1 | 24.5% |
| O=C(CN1C(=O)CC(c2ccccc2)Sc2ccccc21)NCC1CCCO1 (stereo not shown) | -13.3% |
| COc1ccc(-c2csc(Nc3cc(C)ccn3)n2)cc1C | 12.4% |
| S=c1[nH]c2ccc(Cl)cc2s1 | 21.1% |
| CCn1cc(CN2CCc3c([nH]c4ccccc34)C2c2cccc(OC)c2)c(C)n1 (stereo not shown) | -57.3% |
| Cc1ccc(CNC(=O)CCOc2ccc(C(C)(C)C)cc2)cc1 | 5.62% |
| COc1ccc(CNC(=O)COc2ccc(C)nc2[N+](=O)[O-])cc1 | -9.16% |
| CCN(CCN1CCCC1)C(=O)c1cc(COc2ccccc2SC)on1 | -32.1% |
| COc1cccc(C(=O)N2CCN(Cc3ccccc3Br)CC2)c1.O=C(O)C(=O)O | -5.57% |
| Cc1cc(/C=N/NS(=O)(=O)c2ccc(F)c(Cl)c2)no1 | 6.46% |
| Cn1c2ccc(F)cc2c2ncn(Cc3ccccn3)c(=O)c21 | -16.3% |
| O=C(CN1C(=O)c2ccccc2S1(=O)=O)NC(Nc1ccccc1F)C(Cl)(Cl)Cl (stereo not shown) | -5.35% |
| Cc1ccc(NC(=O)C2C3C=CC4(CN(Cc5cccnc5)C(=O)C24)O3)cc1 (stereo not shown) | 7.51% |
| N/C(Cc1ccccc1)=N\OC(=O)c1cccc2ccccc12 | 25.1% |
| COC(=O)c1ccc(NC(=S)N2CCN(CCO)CC2)cc1 | 13.7% |
| O=C(NC1CC1)C(Cc1ccccc1)NS(=O)(=O)c1ccccc1F (stereo not shown) | 22.7% |
| O=C(CSc1nc2ccccc2nc1N1CCCCC1)Nc1ccc(F)cc1 | -2.86% |
| Cc1cc(OCCCCCNCCO)ccc1Cl | -18.2% |
| Fc1ccccc1/C=N/Nc1ccc(Cl)nn1 | -5.48% |

| SMILES | hERG current change (%, negative = inhibition) at 10uM |
| --- | --- |
| COC(=O)c1[nH]c(=O)c2ccccc2c1O | 19.4% |
| CN(C)CC1CCCCC1OC(=O)Cc1ccc(Cl)c([N+](=O)[O-])c1 (stereo not shown) | -8.77% |
| CC12CCC(C/C1=N\OC(=O)c1c(F)cccc1F)C2(C)C (stereo not shown) | -0.495% |
| CNC(=S)Nc1ccc(OCc2ccccc2)cc1 | 7.41% |
| COc1cccc2c1OCC/C2=N\NC(=O)COc1ccccc1C | -19.3% |
| COc1ccc(C(C)(C)C)cc1NC(=O)CCNC(=O)c1ccco1 | -4.87% |
| c1nc2n(n1)C1=C(CCCC1)C1(CCCCC1)N2 | 20.7% |
| C#CCN(C(=O)Nc1ccccc1)c1ccccc1 | 9.62% |
| C/C(CCC(C)C)=N\NS(=O)(=O)c1ccc(C)c([N+](=O)[O-])c1 | -16.6% |
| Cc1cc(Br)c(NC(=O)COC(=O)C2CC2C)c(Br)c1 (stereo not shown) | -3.06% |
| Cc1c(C(=O)O)oc2c(F)cccc12 | 14.4% |
| Cc1ccc(NCCC(=O)c2cccs2)cc1C | 0.601% |
| CCOC(=O)c1c(C)c2c(=O)[nH]cnc2n1-c1ccccc1 | 12.9% |
| Cc1ccccc1-n1c(C)nc2ccccc21 | -5.01% |
| CC(=O)N1CCN(C(=S)NCc2ccccc2)CC1 | 6.27% |
| CC1=CCC2C(=O)N(c3cccc(C(=O)Nc4ccccc4Cl)c3)C(=O)C2C1 (stereo not shown) | 20.9% |
| O=C(NCc1ccco1)C(c1ccco1)N(C(=O)Cn1nnc2ccccc21)c1ccc2c(c1)CCC2 (stereo not shown) | -27% |
| COc1cccc(CC2(CO)CCCN(Cc3cn[nH]c3-c3ccccc3)C2)c1 (stereo not shown) | -49.9% |
| CO/N=C/C(C#N)=C/c1ccc(OC)c(OC)c1 | 15% |
| CCOC(=O)CN1N=C(/C=C/c2ccccc2)CCC1=O | -17.2% |
| COc1ccccc1CN1CC(C(=O)N(C)Cc2ccncc2C)CCC1=O (stereo not shown) | -6.48% |
| O=C(c1ccccc1)c1cc2ccccc2o1 | -1.57% |
| COc1ccc(-n2nc3c(c2NC(=O)c2ccc(Br)cc2)CS(=O)C3)cc1 (stereo not shown) | -50.8% |

| SMILES | hERG current change (%, negative = inhibition) at 10uM |
| --- | --- |
| Cc1nc2ncnn2c(C)c1CCC(=O)NCCCN1CCN(c2cccc(Cl)c2)CC1 | -37.7% |
| COc1cc(/C=C2\SC(=S)N(N3CCOCC3)C2=O)ccc1O | -2.59% |
| O=C(NC1CCCCC1)Oc1cc2oc(=O)sc2cc1Cl | 1.4% |
| COc1ccc(-c2noc(CSc3nnc(Cc4ccccc4)n3-c3cccc(C)c3)n2)cc1OC | -11.1% |
| O=C(NNC(=O)C1COc2ccccc2O1)c1ccccc1 (stereo not shown) | -1.85% |
| CC(C)C(NC(=O)c1ccccc1F)C(=O)NCCc1ccccn1 (stereo not shown) | 28% |
| CCC1C(=O)NCCN1C(=O)c1ccc2nc(Cc3ccc(OC)cc3)oc2c1 (stereo not shown) | 12.5% |
| CCc1cccc(NC2c3ccccc3C(=O)N2c2cccnc2)c1 (stereo not shown) | -10.2% |
| CC(=NCCC1=CCCCC1)c1c(O)n(-c2ccccc2)c(=O)[nH]c1=O | 4.58% |
| O=C(N/C(=C\c1ccc(Cl)cc1)C(=O)N1CCCCC1)c1ccco1 | 11.8% |
| CCC(C(=O)NCCC(C)C)N(Cc1ccccc1Cl)C(=O)c1snc(C(N)=O)c1N (stereo not shown) | 0.692% |
| C=CCNCc1cccn1-c1sc2c(c1C#N)CCCC2 | -28.6% |
| O=C(CCCC(=O)OCC(=O)c1ccc(F)cc1)Nc1cc(C(F)(F)F)ccc1Cl | 8.25% |
| CNC(=O)CC1C(=O)N(c2ccc(Cl)cc2)C(=S)N1NC(=O)c1cccc(F)c1 (stereo not shown) | 12.5% |
| COc1ccc(-c2nn(CCC#N)cc2/C=N/O)cc1 | 7.01% |
| COC(=O)CSc1nc(SCc2ccc(C)cc2)nc2c1CCCC2 | 2.84% |
| Cn1c(N)c(C(=O)Nc2c(Cl)cccc2Cl)sc1=S | 12.8% |
| O=C(NC(Cc1ccccc1)C(=O)NCCc1ccccn1)c1ccccc1 (stereo not shown) | 6.5% |
| COc1ccc(CCN(C)C2CCCN(S(=O)(=O)c3ccc(C)cc3)C2)cc1OC (stereo not shown) | -78% |
| C/C(=N/OC(=O)c1ccc(C)cc1)c1cccs1 | 0.459% |
| CC(C)CN(C(=O)CC(C)c1ccccc1)c1c(N)n(Cc2ccccc2)c(=O)[nH]c1=O (stereo not shown) | 4.12% |
| CSc1nc(NC(C)C)nc(N2CCOCC2)n1 | -4.81% |
